According to FireProtDB (doi:10.1021/bi010427y):

Conditions: Escherichia coli (strain K12), pH 7, CD, sodium phosphate 50 mM, reversible: Unknown

## Thioredoxin 1 wild type (sequence left out)
25 °C, GdnHCl
  denaturant m value: 3.4 kcal/mol/M
  denaturant midpoint (higher = more stable): 2.6 M
  unfolding free energy: 9 kcal/mol
Thermal
  Tm: 87 °C
